According to PubChem BioAssay AID1347417 (National Center for Advancing Translational Sciences (NCATS), 2020):
Hit rate of the full screen: of about 120,000 compounds, about 5,300 (4.4%) were called active. This list was built around the results that the source calls inconclusive (neither active nor inactive); the mix of calls is not that of the screen. The call rests on the fitted dose curve; in most records, active means well fitted inhibition curve with a large enough effect; inconclusive means small, poorly fitted or top-dose-only effect; inactive means no such curve, though single readings can be large or run the other way. Potencies of inconclusive entries are doubtful fits and often do not repeat.

Assay: qHTS Primary assay for Inhibitors of Plasmodium falciparum Dd2 growth in vitro; further: nearly all actives have a fitted effect of over 65% in size
Details: P. falciparum Dd2 growth, SYBR Green, 72 h; series mostly up to 28.9 µM
Procedure, shortened: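 Readout: SYBR Green fluorescence, 485 nm excitation, 535 nm emission, after ~16 h lysis at 37C. Before that, Dd2-infected red cells (2.5% hematocrit) grew 72 h with compound, 29 uM top final concentration.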
Potency means the concentration at half of the fitted maximal effect; tags describe the fitted curve by direction and shape.

Compound | Potency
O=C(Cc1ccccc1)N1[C@H]2CC[C@@H]1c1cnc(-c3ccc(F)cc3)nc1C2 | inactive
CN(Cc1ccccc1C(F)(F)F)Cc1ccccc1C(F)(F)F | inactive
CNC(=O)[C@@H]1CN(C(=O)Cc2c(F)cccc2Cl)C[C@H]1COC | inactive
Cc1ccc(C(=O)N2CCC3(CC2)CC(=O)c2ccc(Cl)cc2O3)cc1 | inactive
CCC(CC)NC(=O)c1ccc(-c2nnc3ccc(NC(=O)C4CCC4)cn23)cc1 | active: 2.51 µM
Cc1ccc(-c2nnc(Nc3cccc(C(F)(F)F)c3)c3ccccc23)cc1S(=O)(=O)N1CCOCC1 | active: 10 µM
Cc1ccc(-n2c(SCC(N)=O)nc3c([nH]c4ccccc43)c2=O)cc1 | inactive
O=C(c1ccc(CS(=O)(=O)c2c(Cl)cccc2Cl)o1)N1CCN(c2ccccc2)CC1 | active: 11.2 µM
Cc1cncn1CCc1nc2c3ccccc3nc(SCC(=O)Nc3ccccc3F)n2n1 | inconclusive: 11.2 µM [inhibitor, partial curve]
CCOCCOC1CCN(C(=O)c2ccc3c(c2)c2ccccc2n3CC)CC1 | inconclusive: 6.31 µM [inhibitor, partial curve, poor fit]
O=C(Nc1ccccc1)N1CCC(N2C(=O)C(OCC3CC3)C23CCCCC3)CC1 (configuration not stated) | inconclusive: 10 µM [inhibitor, partial curve, poor fit]
CNC(=O)c1ccc2c(c1)OCCN(c1cccc(OC(F)(F)F)c1)C2 | active: 11.2 µM
COc1cc2c(cc1-c1ccc(O)c(F)c1)NC(=O)C21CCN(C(C)=O)CC1 | inconclusive: 15.8 µM [inhibitor, partial curve, poor fit]
CC(=O)N1CCN(c2ncccc2CNCc2ccc(CC(C)C)cc2)CC1 | inconclusive: 17.8 µM [inhibitor, single point]
O=C(O)COc1ccc(-c2nccc3c2C(=O)N(Cc2ccccc2)CC(COc2cccc(C(F)(F)F)c2)O3)cc1 (configuration not stated) | inconclusive: 0.794 µM [inhibitor, full curve, poor fit]
Cc1ccc(-n2cccc2CC(=O)N(C)Cc2ccco2)cc1 | inconclusive: 14.1 µM [inhibitor, single point]
COc1cccc(CC(=O)NC2CCN(C(=O)c3cc4c(=O)[nH]c(C)cn4n3)CC2)c1 | inconclusive: 14.1 µM [inhibitor, partial curve, poor fit]
CC1=C[C@@H](CNc2ccccn2)[C@H](C(C)C)C[C@H]1Cc1nnc(-c2ccc(C)cc2)o1 | inconclusive: 10 µM [inhibitor, partial curve, poor fit]
Cc1ccccc1Oc1c(CCC(=O)N2CCSCC2)c(C)nn1-c1ccccc1C | inconclusive: 17.8 µM [inhibitor, single point]
Cc1noc(C)c1S(=O)(=O)N1CCCC(CO)CCNC(=O)CC1 (configuration not stated) | inactive
CC(=O)N1CCc2cc(Br)cc(S(=O)(=O)CCC(=O)Nc3ccc(C)cc3Cl)c21 | inconclusive: 10 µM [inhibitor, single point]
CCOc1ccc2oc(=O)cc(CN3CCN(c4ccc(Cl)cc4)CC3)c2c1 | inconclusive: 17.8 µM [inhibitor, single point]
COCCN1C(=O)CCC2(CNC(=O)COc3ccc(F)cc3)CCCC=C12 (configuration not stated) | inconclusive: 1.12 µM [inhibitor, partial curve, poor fit]

Compound | Potency
CCN1CCN(c2cc(C)c3cc(NC(=O)c4ccccc4F)ccc3n2)CC1 | inconclusive: 17.8 µM [inhibitor, single point]
CS(=O)(=O)Nc1ccc([C@H]2OCC(=O)N[C@@H]2CO)cc1 | inactive
COc1ccc(C(=O)NCC(c2ccc3c(c2)OCO3)N2CCN(c3ccc(F)cc3)CC2)cc1 (configuration not stated) | inconclusive: 10 µM [inhibitor, single point]
COc1ccc2c(c1)nc1n2[C@@H](CNC2CCN(C(C)=O)CC2)COC1 | inactive
CC(=O)N1CCC(N2C[C@@H]3C[C@H]2C(=O)N(C)c2ccccc2O3)CC1 | inactive
O=C(CN1C(=O)C(c2ccccc2)=NC12CCCCCC2)Nc1cccc(Cl)c1 | inactive
CCOc1ccccc1N(CC(=O)Nc1ccc(OC)c(Cl)c1)S(=O)(=O)c1ccccc1 | inconclusive: 7.08 µM [inhibitor, single point]
CC(C)CNC(=O)C1CC(=O)N(c2n[nH]c3cc(Br)ccc23)C1 (configuration not stated) | inactive
CC(C)C[C@@H]1N[C@H](C(=O)N2CCOCC2)Cc2cn(Cc3nccn3C)c3cccc1c23 | active: 11.2 µM
Cc1ccsc1CN1CCc2[nH]nc(C(=O)N(C)C)c2C1 | inconclusive: 3.98 µM [inhibitor, full curve, poor fit]
CCOc1ccccc1C1NC(=O)N(CC(=O)N2CCN(c3ccccc3)CC2)C2=C1C(=O)OC2 (configuration not stated) | inconclusive: 10 µM [inhibitor, partial curve]
Fc1ccc(Nc2nc(Nc3ccc(F)cc3)nc(N3CCOCC3)n2)cc1 | inconclusive: 1.41 µM [inhibitor, full curve, poor fit]
CCCCNC(=O)COc1ccc(NC(=O)C2CC2)cn1 | inactive
COCc1ccc(C(=O)NCc2cc3n(n2)CCCN(CC(C)C)C3)o1 | inactive
O=C(CN1C(=O)NC2(CCCCC2)C1=O)Nc1ccc(Cl)cc1 | inactive
Cn1ccnc1-c1ccc(N2CCC(C(O)Cc3ccccc3)CC2)nn1 (configuration not stated) | inactive
COc1cccc(S(=O)(=O)N2CCn3ncc(C(=O)NCc4ccc(Cl)nc4)c3C2)c1 | inconclusive: 8.91 µM [inhibitor, partial curve, poor fit]
O=C1CC(c2noc(-c3ccc4c(c3)OCO4)n2)CN1c1ccc(F)c(Cl)c1 (configuration not stated) | inactive
CCOc1ccc(N(CC)S(=O)(=O)N2CCCC(C(=O)NCCc3ccccc3OC)C2)cc1 (configuration not stated) | inconclusive: 12.6 µM [inhibitor, partial curve]
Cc1cccc(Oc2coc3cc(OCC(=O)NC4CCCCC4)ccc3c2=O)c1 | active: 10 µM
CN1CCN(c2ccc3nnc(-c4cc(C(=O)N(C)Cc5ccccc5)ccn4)n3n2)CC1 | inactive
CCOCN(C(=O)Cn1cnc2cc(C)c(C)cc21)c1c(C)cccc1CC | inconclusive: 10 µM [inhibitor, single point]
COc1ccnc(-c2nnc3ccc(Nc4cc(OC)c(OC)c(OC)c4)nn23)c1 | inconclusive: 11.2 µM [inhibitor, partial curve, poor fit]

Compound | Potency
COc1ccc(S(=O)(=O)c2cn(Cc3ccccc3)c3ccc(OC)cc3c2=O)cc1 | inconclusive: 15.8 µM [inhibitor, single point]
CN(C)c1ccc(C(CNS(=O)(=O)c2ccc(F)cc2)N2CCc3ccccc32)cc1 (configuration not stated) | inconclusive: 8.91 µM [inhibitor, partial curve, poor fit]
COc1ccccc1NC(=O)N(Cc1ccc2c(c1)OCO2)C1CCN(Cc2ccccc2)CC1 | active: 11.2 µM
c1ccc(CN2CC[C@H](c3nc4ccccc4o3)C2)nc1 | inconclusive: 17.8 µM [inhibitor, single point]
O=C1NCN(Cc2ccc(Cl)cc2)C12CCN([S+](=O)([O-])c1cccs1)CC2 | inactive
COc1ccc(NC(=O)c2cc3c(=O)n(Cc4cccnc4)ccc3nc2C)cc1Cl | inactive
CNCc1ccc(OC(F)(F)F)cc1 | inactive
COCCc1noc(-c2ccccc2OC2CN(C(=O)c3cnc(C)cn3)C2)n1 | inconclusive: 8.91 µM [inhibitor, single point]
CC(C)c1ccc(CC(=O)N2CCCc3ncc(C(=O)N(C)Cc4ccccc4)cc32)cc1 | inconclusive: 12.6 µM [inhibitor, single point]
Cc1cc(=O)n(CC(=O)Nc2ccc(Br)cc2)c(N2CCOCC2)n1 | inconclusive: 17.8 µM [inhibitor, single point]
COc1ccc(CNC(=O)c2ccc3c(c2)N(C)C2CCCN2C3=O)c(OC)c1 (configuration not stated) | inconclusive: 8.91 µM [inhibitor, partial curve]
Cc1ccc(CN2CCN(C(=O)C3Cn4cccc4C(=O)N3Cc3cccnc3)CC2)cc1 (configuration not stated) | active: 12.6 µM
COc1cccc(-c2cc3c(=O)n(CCNC(=O)c4ccc5cc[nH]c5c4)ccn3n2)c1 | inconclusive: 1.12 µM [inhibitor, partial curve, poor fit]
O=C(Nc1ccccc1)N[C@H]1C[C@H]2C(=O)NC[C@@H](CCC(=O)N3CCN(c4ccccn4)CC3)N2C1 | inconclusive: 20 µM [inhibitor, single point]
Cc1cc(C(=O)N2CCNCC(O)C2)c(-c2ccccc2)o1 (configuration not stated) | inconclusive: 10 µM [inhibitor, single point]
O=C(c1ccncc1)N1CC(Oc2ccccc2-c2nc(C3CC3)no2)C1 | inconclusive: 7.94 µM [inhibitor, single point]
O=c1c(S(=O)(=O)c2ccc(Cl)cc2)cn(Cc2ccc(F)cc2)c2ccc(F)cc12 | active: 11.2 µM
CC(C)c1cccc(NC(=O)Cn2cccc2-c2nc(-c3ccc4c(c3)OCO4)no2)c1 | inconclusive: 17.8 µM [inhibitor, single point]
O=C(Nc1ccc2nnc(-c3ccc(C(=O)N4CCCCC4)cc3)n2c1)C1CCC1 | inconclusive: 5.01 µM [inhibitor, partial curve, poor fit]
COc1ccccc1Cc1nc2ccccc2nc1SCC(=O)N1CCC(C)CC1 | inconclusive: 10 µM [inhibitor, single point]
CCOC(=O)c1cc(-c2ccccc2)n(CCCC(=O)Nc2cc(C)ccc2OC)c1C | inconclusive: 17.8 µM [inhibitor, single point]
